The record followed here is PubChem BioAssay AID686971 (National Center for Advancing Translational Sciences (NCATS), 2013).

The whole screen tested about 360,000 compounds, of which about 7,500 (2.1%) were called active. About 8% were inconclusive and are not listed. Calls follow the shape of the dose curve; as a rule, active = well fitted cell-killing curve with a large enough effect; inconclusive = small, poorly fitted or top-dose-only effect, or effect the other way, or another doubt; inactive = no such curve, though single readings can be large or run the other way. The entries are a selection whose mix differs from that of the whole data set.
Potency is read from the fitted curve at half-maximal effect.

The nature of this assay: qHTS for induction of synthetic lethality in tumor cells producing 2HG: qHTS for the HT-1080-IDH1KD cell line.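 As to activity, negative = toxicity: 0% = DMSO wells and -100% = cell-free medium wells.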 The conditions noted are these: HT-1080 IDH1 knockdown viability, ATP luminescence, 48 h; series mostly up to 46.1 µM; activity, negative = toxicity: at the top concentration. In a few lines: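 CellTiter-Glo luminescence after 48 h compound exposure at 37 degrees C of IDH1-knockdown HT-1080 cells in 5% FBS RPMI. %Activity scaled between DMSO wells and cell-free media wells, with curves fitted and assigned curve classes.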
Background: In qHTS, concentration-response curves come from the screen itself.
For `Oc1cc2c(cc1O)C1c3ccc(O)c(O)c3OCC1(O)C2` (stereo not drawn), the “activity, negative = toxicity” value was inactive: -28.5%. `CN(C)CCC(c1ccc(Br)cc1)c1ccccn1` (stereo not drawn): the Potency entry is “inactive”. Regarding `CCCN(CCC)CC(O)Cn1cc(/C=C/C(=O)c2ccccc2)c2ccccc21` (stereo not drawn), the Potency is active: 14.6 µM.

With `C=CCOC(=O)C1=C[C@H](c2ccccc2)[C@@H](CCCO)[C@H](OCC)O1`, the “activity, negative = toxicity” value was inactive: 5.5%. For the compound `C/C(N)=C(/C#N)C(=O)CSc1nnc(-c2ccc(OC(F)F)cc2)o1`, the “activity, negative = toxicity” value is inactive: -3.46%.

Take `CC(=O)Nc1nc(C)c(-c2csc(Nc3ccccn3)n2)s1`: the “activity, negative = toxicity” value is inactive: -23.9%. In the case of `O=C(CSc1ncn[nH]1)N1N=C2/C(=C\c3ccco3)CCCC2C1c1ccco1` (stereo not drawn), the “activity, negative = toxicity” value is inactive: -2.39%. For the compound `O=C(c1cc(Cl)cc(Cl)c1)N1CCC(=O)N(C(COCc2ccccc2)Cc2ccccc2)CC1` (stereo not drawn), the “activity, negative = toxicity” value was inactive: -24.2%. Regarding `COc1cc([C@H]2Oc3cc([C@H]4Oc5cc(O)cc(O)c5C(=O)[C@@H]4O)ccc3O[C@@H]2CO)ccc1O`, the “activity, negative = toxicity” value was inactive: -13.4%. With `CCc1ccc(/C=C2/SC(=S)N(CCCC(=O)Nc3ccccc3C(=O)O)C2=O)cc1`, the “activity, negative = toxicity” value is inactive: 4.01%. For `CC(C)NC(=O)NC(=O)COC(=O)c1c2c(nc3ccccc13)CCC2`, the Potency was active: 25.9 µM.

With `O=C1N[C@H](Cc2ccccc2)COC(=O)[C@H](Cc2ccc(F)cc2)CC/C=C/C[C@H]1CC(=O)N(CCO)Cc1ccccc1`, the “activity, negative = toxicity” value was inactive: -24%. Same read-out and setting: the figure for `COC(C/C=C\C(=O)[C@H](C)OCc1ccccc1)OC` is inactive: -7.4%; for `c1ccc(CN(CC2=NCCN2)c2ccccc2)cc1` it is inactive: -12.7%.

Consider `OC[C@@H]1CN(Cc2cccc(C(F)(F)F)c2)C[C@H](n2cnc3c(NCc4ccc(F)cc4)ncnc32)O1`, for which the Potency was active: 20.6 µM. As to `CC(C)C[C@H]1CNC(=S)N1CC1CCCN1C[C@H](CC(C)C)N1C[C@H](Cc2ccc(O)cc2)N(CC2CCCCC2)C1=S` (stereo partly drawn), the “activity, negative = toxicity” value is inactive: -23.6%. In the case of `Cc1cc(NC(=O)CSc2nc(C(C)C)nc3ccccc23)no1`, the Potency was active: 16.4 µM. Consider `CC(C)(C)NC(=O)C(c1ccncc1)n1c(-c2ccc(C(F)(F)F)cc2)nc2ccccc21` (stereo not drawn), for which the Potency is active: 20.6 µM. For `CC(=O)SC1CC2=CC(=O)CCC2(C)C2CCC3(C)C(CCC34CCC(=O)O4)C12` (stereo not drawn), the “activity, negative = toxicity” value is inactive: -22.8%.

With `C=CC[C@@H](CC(=O)N[C@H](CO)Cc1ccccc1)C(=O)NC[C@@H](OC(=O)[C@@H](CC=C)Cc1ccc(F)cc1)c1ccccc1`, the “activity, negative = toxicity” value was inactive: -5.76%. Same read-out and setting: with `CC(C)[C@H](NC(=O)N1c2ccccc2NC(=O)[C@@H]1C(C)C)C(=O)N[C@H](C(=O)O)c1ccccc1` the figure was inactive: -6.01%. For `Cc1nc(N2CCN(C)CC2)c2c(C)c(C(=O)Nc3ccc(C)c(F)c3)sc2n1`, the Potency was active: 14.1 µM. As to `CCO[C@H]1OC(C(=O)NCc2ccccc2)=C[C@@H](c2ccc(C(F)(F)F)cc2)[C@@H]1CCCO`, the “activity, negative = toxicity” value was inactive: -16.5%. As for `O=C(CSc1cccc[n+]1[O-])Nc1ccccc1Oc1ccccc1`, the Potency is active: 6.51 µM.

For `CN(C)/C=C1\C=C(c2ccccc2)OC1=O`, the “activity, negative = toxicity” value is inactive: 3.26%.

In the case of `CN(C)C(=O)Oc1cccc([N+](C)(C)C)c1`, the “activity, negative = toxicity” value was inactive: 2.79%. For the compound `COc1ccc(C(CC(=O)c2ccc(C)cc2)C(C#N)C#N)cc1OC` (stereo not drawn), the Potency was active: 23.1 µM. `COC(=O)N[C@@H]1C[C@H]2[C@@H]3CC[C@H]4C[C@@H](OC)CC[C@]4(C)[C@H]3CC[C@]12C`: the “activity, negative = toxicity” value is inactive: -2.79%.

`CC1(C)OC2CC3C4CC(F)C5=CC(=O)C=CC5(C)C4(F)C(O)CC3(C)C2(C(=O)CO)O1` (stereo not drawn): the “activity, negative = toxicity” value is inactive: 34.9%.

In the case of `CCN1CCN(CCNC(=O)c2ccc3c(c2)N(Cc2ccc(F)cc2)C(=O)/C(=C/c2ccccc2)S3)CC1`, the Potency is active: 5.17 µM. Consider `CC1=CC(C)(C)Nc2ccccc21`, for which the “activity, negative = toxicity” value was inactive: 3.66%. In the case of `COc1ccc([C@@]2(C(C)C)ON(c3ccccc3C(F)(F)F)C2=O)cc1`, the “activity, negative = toxicity” value was inactive: -9.8%.

Take `O=C(Nc1ccccc1)/C(=C/c1ccccc1)NC(=O)c1ccco1`: the “activity, negative = toxicity” value is inactive: 2.01%. In the case of `Cc1cccc(N2CCN(C(=O)c3ccc4[nH]c(C)c(C)c4c3)CC2)c1C`, the Potency was active: 3.66 µM.

As to `COc1ccc(-c2nc3cc(C)ccn3c2NC2CCCCC2)cc1SC1CCCCC1`, the “activity, negative = toxicity” value is inactive: -81.4%. Same read-out and setting: with `C=CCc1ccccc1OCC(O)CN1CCN(c2ccccc2OC)CC1` (stereo not drawn) the figure was inactive: -25.6%; with `[O-]/[N+](=C\c1ccc(F)cc1)c1ccccc1`, inactive: 7.2%. `COc1ccc([C@H]2C[C@@H](O)[C@H](n3cc(COC(=O)c4ccccc4)nn3)CN2CC2CCCCC2)cc1`: the “activity, negative = toxicity” value was inactive: -26.5%. Turning to `CCOc1cc(N2CCOCC2)c(OCC)cc1NC(=O)COC(=O)[C@@H]1CCCN1S(=O)(=O)c1ccccc1F`, the “activity, negative = toxicity” value was inactive: -27.8%. Take `O=C(c1ccccc1)c1ccc2nc(-c3ccco3)c(-c3ccco3)nc2c1`: the Potency is active: 18.4 µM. `O=C(NCCc1ccccc1)Nc1nnc([C@H]2C[C@H](O)[C@@H](CO)O2)s1`: the “activity, negative = toxicity” value is inactive: 4.24%.

`O=C1NC[C@H](CCCCN2C[C@H](Cc3ccc(O)cc3)N(CCC3CCCCC3)C(=O)C2=O)N(CC2CCCCC2)C1=O`: the “activity, negative = toxicity” value was inactive: 5.52%. For the compound `CC(C)C[C@H]1CN([C@@H](Cc2ccccc2)CN2CCC[C@@H]2CN2C(=O)C(=O)NC[C@@H]2Cc2ccc(O)cc2)C(=O)C(=O)N1CCc1ccccc1`, the “activity, negative = toxicity” value was inactive: 3.99%. `COc1ccc(-c2cc(=O)c3c(O)cc(OC4OC(COC5OC(C)C(O)C(O)C5O)C(O)C(O)C4O)cc3o2)cc1O` (stereo not drawn): the “activity, negative = toxicity” value was inactive: -2.21%.

With `O=C(NCc1ccccc1)C1=C[C@H](c2ccc(C(F)(F)F)cc2)C[C@H](OCc2ccc(CO)cc2)O1`, the “activity, negative = toxicity” value is inactive: -9.82%. As for `CC(=C/c1ccco1)/C=N/N1CCN(c2ccccc2)CC1`, the “activity, negative = toxicity” value is inactive: 0.439%. For the compound `Cc1ccc(OCC(=O)Nc2ccc3c(c2)nc(CCN2CCN(c4ccccn4)CC2)n3C)cc1`, the Potency was active: 20.6 µM. For the compound `N#C/C(=C/c1cccs1)c1nc2ccccc2[nH]1`, the “activity, negative = toxicity” value is inactive: -26.1%.

For the compound `O=C(NCc1ccncc1)[C@@H]1CCCN1C(=O)[C@H]1CCCN1C(=O)c1ccccc1`, the “activity, negative = toxicity” value is inactive: -0.29%. For `CCN(CC)CCOC(=O)c1ccc(NC(=O)CCCN2C(=O)/C(=C/c3cccs3)SC2=S)cc1`, the “activity, negative = toxicity” value was inactive: -28.7%. Turning to `COc1ccc(/C=C2/SC(c3ccc(C)cc3)=NC2=O)cc1OC`, the “activity, negative = toxicity” value is inactive: -7.1%.

Turning to `O=C(O)c1ccc(NN=CC2=C(N3CCOCC3)/C(=C/c3ccccc3)CC2)cc1`, the “activity, negative = toxicity” value was inactive: -15.1%. As for `Cc1ccc(-c2csc(NC(=O)CSc3nc4ccccc4c(=O)n3CCCN(C)C)n2)cc1`, the Potency is active: 23.1 µM. On to `C[C@H](CCC(=O)O)[C@H]1CC[C@H]2[C@@H]3CC[C@@H]4C[C@H](O)CC[C@]4(C)[C@H]3C[C@H](O)[C@]12C`, for which the Potency entry was “inactive”. For `NC(=O)C1=C[C@H](c2csc3ccccc23)C[C@H](OCc2ccc(CO)cc2)O1`, the “activity, negative = toxicity” value was inactive: -1.44%. For the compound `Cc1ccc(NC(=S)N/C(=N/S(=O)(=O)c2ccccc2)c2ccccc2)cc1`, the “activity, negative = toxicity” value was inactive: 0.458%. Still for that read-out and setting: the figure for `CC1(C)OC(c2ccccc2)=C/C(=C/C=N/NC(=O)c2ccncc2)O1` is inactive: -21.4%; for `O=C(O)C12C[C@H]3C[C@@H](C1)CC(n1ncc(N4CCN(c5ccccc5)CC4)c(Cl)c1=O)(C3)C2` it is inactive: 19.4%. As to `CC(C)C[C@H]1CN(CCCC[C@H]2CNC(=O)C(=O)N2CCc2ccccc2)C(=O)C(=O)N1CCc1ccc(O)cc1`, the “activity, negative = toxicity” value was inactive: 2.43%.

Turning to `O=C(/C=C/c1ccc(Br)cc1)c1ccc(NC(=O)c2ccco2)cc1`, the “activity, negative = toxicity” value was inactive: 12.1%. Take `Cc1cccc(CNC(=O)Nc2nnc([C@@H]3C[C@H](O)[C@@H](CO)O3)s2)c1`: the “activity, negative = toxicity” value was inactive: -1.65%.

Consider `CN1C(c2ccc(F)cc2)=CS/C1=C(/C#N)c1nnc2n1-c1ccccc1SC2`, for which the “activity, negative = toxicity” value is inactive: -6.32%. Regarding `CCn1c(SCC(=O)N/N=C/C=C/c2ccccc2[N+](=O)[O-])nnc1-c1ccccc1`, the “activity, negative = toxicity” value is inactive: -4.1%.
